From PMC10909981
These are yes or no findings as the source states them, for the method shown. Binding seen in cells or lysates may run through a third protein. Some results given as binding are weak or reduced against the parent protein; the word gives no strength. Tags and fused reporters may be left off the sequences shown.

The chains behind the UniProt entries cited, without tags or fusion partners.
UniProt O60566: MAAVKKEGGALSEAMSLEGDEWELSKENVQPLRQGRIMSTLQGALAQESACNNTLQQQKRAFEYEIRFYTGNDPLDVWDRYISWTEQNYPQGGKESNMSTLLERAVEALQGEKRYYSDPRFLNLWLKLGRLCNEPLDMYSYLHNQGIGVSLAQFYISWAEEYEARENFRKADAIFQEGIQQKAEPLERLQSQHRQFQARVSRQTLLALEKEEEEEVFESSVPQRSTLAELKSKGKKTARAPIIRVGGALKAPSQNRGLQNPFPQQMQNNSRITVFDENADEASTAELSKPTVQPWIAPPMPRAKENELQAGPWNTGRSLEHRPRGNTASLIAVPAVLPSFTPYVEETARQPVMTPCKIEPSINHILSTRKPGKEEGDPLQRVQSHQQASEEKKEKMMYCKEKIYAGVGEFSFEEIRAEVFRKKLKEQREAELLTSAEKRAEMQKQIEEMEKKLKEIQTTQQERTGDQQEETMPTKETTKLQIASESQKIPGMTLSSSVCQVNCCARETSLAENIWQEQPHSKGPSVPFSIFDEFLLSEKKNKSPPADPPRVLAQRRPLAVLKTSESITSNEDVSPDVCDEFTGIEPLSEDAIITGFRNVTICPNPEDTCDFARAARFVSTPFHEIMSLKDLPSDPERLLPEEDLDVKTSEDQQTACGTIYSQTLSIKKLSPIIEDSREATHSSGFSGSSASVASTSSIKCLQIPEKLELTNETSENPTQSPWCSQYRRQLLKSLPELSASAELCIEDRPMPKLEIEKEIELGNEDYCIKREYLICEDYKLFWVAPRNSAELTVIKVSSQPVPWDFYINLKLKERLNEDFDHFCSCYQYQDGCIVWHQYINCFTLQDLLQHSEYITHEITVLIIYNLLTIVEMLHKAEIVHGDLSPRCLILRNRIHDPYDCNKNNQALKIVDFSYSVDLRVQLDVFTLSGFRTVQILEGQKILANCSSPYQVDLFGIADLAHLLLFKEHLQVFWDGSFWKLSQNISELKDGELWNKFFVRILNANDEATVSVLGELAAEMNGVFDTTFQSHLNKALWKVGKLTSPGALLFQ
UniProt Q13257: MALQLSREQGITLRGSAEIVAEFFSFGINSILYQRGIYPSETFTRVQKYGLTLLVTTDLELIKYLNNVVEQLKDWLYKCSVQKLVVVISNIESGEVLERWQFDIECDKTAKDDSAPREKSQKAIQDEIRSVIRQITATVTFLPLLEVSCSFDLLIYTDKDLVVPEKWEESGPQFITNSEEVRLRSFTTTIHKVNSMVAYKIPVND
UniProt Q12834: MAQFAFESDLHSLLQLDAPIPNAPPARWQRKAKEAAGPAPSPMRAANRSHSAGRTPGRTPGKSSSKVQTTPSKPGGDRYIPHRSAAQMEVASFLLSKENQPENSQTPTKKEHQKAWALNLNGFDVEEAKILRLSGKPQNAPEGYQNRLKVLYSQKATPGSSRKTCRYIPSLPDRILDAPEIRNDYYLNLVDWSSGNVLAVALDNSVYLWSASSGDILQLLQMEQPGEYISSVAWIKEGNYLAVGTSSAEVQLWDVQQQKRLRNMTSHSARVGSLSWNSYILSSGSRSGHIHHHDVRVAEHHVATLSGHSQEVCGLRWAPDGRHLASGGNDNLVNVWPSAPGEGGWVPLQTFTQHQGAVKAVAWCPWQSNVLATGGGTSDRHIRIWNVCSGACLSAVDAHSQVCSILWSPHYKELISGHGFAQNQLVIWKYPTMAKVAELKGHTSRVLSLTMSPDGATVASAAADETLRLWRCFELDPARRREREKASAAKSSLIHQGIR

What was measured:
HA-SETDB2 = molecular target: T1, HA-SETDB2 (UniProt Q96T68); experiment: co-IP; HA-SETDB2 overexpressed in 293T cells, endogenous BUBR1; cell lysate, beads overnight at 4 °C; western blot
T1 sequence: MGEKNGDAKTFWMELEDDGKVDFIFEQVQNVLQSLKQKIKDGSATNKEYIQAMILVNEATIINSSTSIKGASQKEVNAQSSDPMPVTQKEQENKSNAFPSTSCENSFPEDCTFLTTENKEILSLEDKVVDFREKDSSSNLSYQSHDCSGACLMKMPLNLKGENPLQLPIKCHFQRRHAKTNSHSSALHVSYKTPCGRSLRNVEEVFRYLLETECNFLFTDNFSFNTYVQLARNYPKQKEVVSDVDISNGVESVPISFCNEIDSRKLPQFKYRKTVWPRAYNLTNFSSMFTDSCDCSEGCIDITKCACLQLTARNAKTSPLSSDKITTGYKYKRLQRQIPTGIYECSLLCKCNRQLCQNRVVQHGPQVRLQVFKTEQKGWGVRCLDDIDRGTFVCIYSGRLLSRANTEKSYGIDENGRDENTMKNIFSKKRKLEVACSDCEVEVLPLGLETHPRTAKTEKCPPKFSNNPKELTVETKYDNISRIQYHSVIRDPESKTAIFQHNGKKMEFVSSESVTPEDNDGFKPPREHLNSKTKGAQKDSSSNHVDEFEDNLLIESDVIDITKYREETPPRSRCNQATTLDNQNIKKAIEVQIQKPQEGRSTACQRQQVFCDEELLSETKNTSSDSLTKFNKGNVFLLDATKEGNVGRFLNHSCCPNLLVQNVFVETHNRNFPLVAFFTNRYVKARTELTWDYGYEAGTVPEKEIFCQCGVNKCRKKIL

GFP-SETDB2-WT = molecular target: T2, GFP-SETDB2-WT (UniProt Q96T68); experiment: co-IP; GFP-SETDB2-WT or GFP-SETDB2-2GA expressed in 293T cells, endogenous BUBR1; cell lysate; western blot
T2 sequence: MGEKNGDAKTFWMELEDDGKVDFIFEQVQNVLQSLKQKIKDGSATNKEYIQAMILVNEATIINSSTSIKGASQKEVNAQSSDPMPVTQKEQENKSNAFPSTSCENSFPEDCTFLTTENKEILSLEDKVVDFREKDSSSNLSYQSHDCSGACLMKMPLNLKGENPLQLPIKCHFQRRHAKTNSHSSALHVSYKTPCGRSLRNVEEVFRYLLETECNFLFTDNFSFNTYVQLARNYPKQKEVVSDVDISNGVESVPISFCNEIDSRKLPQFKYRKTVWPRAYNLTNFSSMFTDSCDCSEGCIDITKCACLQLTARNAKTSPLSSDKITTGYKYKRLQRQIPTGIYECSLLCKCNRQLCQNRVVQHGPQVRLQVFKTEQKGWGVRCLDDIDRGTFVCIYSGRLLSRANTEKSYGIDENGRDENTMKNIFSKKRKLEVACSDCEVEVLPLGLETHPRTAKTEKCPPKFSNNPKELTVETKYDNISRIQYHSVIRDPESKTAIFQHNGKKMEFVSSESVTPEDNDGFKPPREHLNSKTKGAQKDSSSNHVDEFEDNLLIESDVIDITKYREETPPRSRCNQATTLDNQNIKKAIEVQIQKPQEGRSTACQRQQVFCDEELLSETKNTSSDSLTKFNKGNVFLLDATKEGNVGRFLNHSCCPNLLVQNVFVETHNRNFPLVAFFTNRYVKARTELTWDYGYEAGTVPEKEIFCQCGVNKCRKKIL

[1] = molecular target: T3, SETDB2 (SET domain bifurcated histone lysine methyltransferase 2), endogenous (human (endogenous in MCF7, MDA-MB-231, SUM159PT)) (UniProt Q96T68); experiment: co-IP; endogenous proteins in lysates of MCF7, MDA-MB-231 and SUM159PT cells; antibody with protein A + G-agarose beads overnight at 4 °C; lysis buffer 50 mM Tris-HCl pH 7.4, 200 mM NaCl, 1 mM EDTA, 0.1% Triton X-100, 8% glycerol; western blot
T3 sequence: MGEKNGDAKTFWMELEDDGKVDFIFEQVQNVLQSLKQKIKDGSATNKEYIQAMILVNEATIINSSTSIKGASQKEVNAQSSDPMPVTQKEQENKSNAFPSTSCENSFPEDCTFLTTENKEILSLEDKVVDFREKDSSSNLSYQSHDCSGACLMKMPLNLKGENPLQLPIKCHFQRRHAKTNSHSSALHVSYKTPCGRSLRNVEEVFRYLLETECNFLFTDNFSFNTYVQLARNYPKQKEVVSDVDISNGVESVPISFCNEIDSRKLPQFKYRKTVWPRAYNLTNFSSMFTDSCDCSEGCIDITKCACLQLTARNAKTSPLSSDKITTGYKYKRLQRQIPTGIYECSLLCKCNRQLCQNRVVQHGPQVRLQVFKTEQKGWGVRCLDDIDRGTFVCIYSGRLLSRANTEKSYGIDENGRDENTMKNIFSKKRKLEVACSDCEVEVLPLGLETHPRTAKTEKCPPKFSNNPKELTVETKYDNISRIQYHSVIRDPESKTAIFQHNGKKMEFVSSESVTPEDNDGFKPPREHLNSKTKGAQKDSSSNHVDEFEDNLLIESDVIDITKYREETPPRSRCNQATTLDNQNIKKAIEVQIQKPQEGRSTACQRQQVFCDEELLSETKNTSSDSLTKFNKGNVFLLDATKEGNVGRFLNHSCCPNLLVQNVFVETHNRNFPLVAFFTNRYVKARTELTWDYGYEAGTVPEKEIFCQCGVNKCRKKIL

His-SETDB2 = molecular target: T4, His-SETDB2 (UniProt Q96T68); experiment: pull-down; His-SETDB2 from E. coli held on His-tag purification resin, incubated with MCF7 cell lysate supernatant overnight at 4 °C; washed with 50 mM Tris-HCl pH 7.4, 150 mM NaCl, 1 mM EDTA, 0.1% Triton X-100, 20 mM imidazole; western blot; only the target purified
T4 sequence: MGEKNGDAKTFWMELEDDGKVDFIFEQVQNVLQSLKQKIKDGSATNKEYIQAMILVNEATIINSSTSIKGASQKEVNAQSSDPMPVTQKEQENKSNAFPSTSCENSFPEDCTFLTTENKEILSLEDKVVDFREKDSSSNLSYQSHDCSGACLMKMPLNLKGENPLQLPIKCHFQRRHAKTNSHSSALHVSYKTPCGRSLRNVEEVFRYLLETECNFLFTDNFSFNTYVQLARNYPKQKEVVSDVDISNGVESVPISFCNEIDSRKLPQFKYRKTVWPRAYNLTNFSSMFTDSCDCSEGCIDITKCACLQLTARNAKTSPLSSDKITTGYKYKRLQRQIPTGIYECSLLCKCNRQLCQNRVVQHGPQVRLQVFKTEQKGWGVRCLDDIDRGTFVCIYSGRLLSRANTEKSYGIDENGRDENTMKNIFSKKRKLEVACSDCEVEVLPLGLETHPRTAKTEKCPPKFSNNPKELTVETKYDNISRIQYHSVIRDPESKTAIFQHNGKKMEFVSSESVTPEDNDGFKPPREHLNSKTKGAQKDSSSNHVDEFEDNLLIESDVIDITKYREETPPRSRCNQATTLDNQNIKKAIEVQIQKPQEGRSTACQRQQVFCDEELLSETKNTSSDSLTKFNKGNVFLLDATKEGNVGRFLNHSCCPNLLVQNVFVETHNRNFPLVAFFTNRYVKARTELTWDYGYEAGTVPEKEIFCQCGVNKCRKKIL

Molecule	binding (HA-SETDB2)	binding (GFP-SETDB2-WT)	binding [1]	binding (His-SETDB2)
BUBR1 (BUB1 mitotic checkpoint serine/threonine kinase B), endogenous (from UniProt O60566 1-1050)	binds	binds	binds	binds
MAD2, endogenous (from UniProt Q13257 1-205)	–	–	no binding	–
CDC20 (cell division cycle 20), endogenous (from UniProt Q12834 1-499)	–	–	no binding	–
MPS1, endogenous (protein, UniProt P33981 1-857) MESEDLSGRELTIDSIMNKVRDIKNKFKNEDLTDELSLNKISADTTDNSGTVNQIMMMANNPEDWLSLLLKLEKNSVPLSDALLNKLIGRYSQAIEALPPDKYGQNESFARIQVRFAELKAIQEPDDARDYFQMARANCKKFAFVHISFAQFELSQGNVKKSKQLLQKAVERGAVPLEMLEIALRNLNLQKKQLLSEEEKKNLSASTVLTAQESFSGSLGHLQNRNNSCDSRGQTTKARFLYGENMPPQDAEIGYRNSLRQTNKTKQSCPFGRVPVNLLNSPDCDVKTDDSVVPCFMKRQTSRSECRDLVVPGSKPSGNDSCELRNLKSVQNSHFKEPLVSDEKSSELIITDSITLKNKTESSLLAKLEETKEYQEPEVPESNQKQWQSKRKSECINQNPAASSNHWQIPELARKVNTEQKHTTFEQPVFSVSKQSPPISTSKWFDPKSICKTPSSNTLDDYMSCFRTPVVKNDFPPACQLSTPYGQPACFQQQQHQILATPLQNLQVLASSSANECISVKGRIYSILKQIGSGGSSKVFQVLNEKKQIYAIKYVNLEEADNQTLDSYRNEIAYLNKLQQHSDKIIRLYDYEITDQYIYMVMECGNIDLNSWLKKKKSIDPWERKSYWKNMLEAVHTIHQHGIVHSDLKPANFLIVDGMLKLIDFGIANQMQPDTTSVVKDSQVGTVNYMPPEAIKDMSSSRENGKSKSKISPKSDVWSLGCILYYMTYGKTPFQQIINQISKLHAIIDPNHEIEFPDIPEKDLQDVLKCCLKRDPKQRISIPELLAHPYVQIQTHPVNQMAKGTTEEMKYVLGQLVGLNSPNSILKAAKTLYEHYSGGESHNSSSSKTFEKKRGKK	–	–	no binding	–
